Whole data set: some 33,000 sequences, median “E-score (-0.5 to 0.5)” near -0.017, cut for the highest 2% near 0.3. The list shows a part of the results.
target: T1, Sut1 (UniProt P53032); experiment: PBM E-score (8-mer binding enrichment) (E-score (-0.5 to 0.5)); higher = stronger / more preferred TF binding; most listed sequences are background and not binding sites; conditions: protein concentration: 200 nM; construct: GST-full length
T1 sequence: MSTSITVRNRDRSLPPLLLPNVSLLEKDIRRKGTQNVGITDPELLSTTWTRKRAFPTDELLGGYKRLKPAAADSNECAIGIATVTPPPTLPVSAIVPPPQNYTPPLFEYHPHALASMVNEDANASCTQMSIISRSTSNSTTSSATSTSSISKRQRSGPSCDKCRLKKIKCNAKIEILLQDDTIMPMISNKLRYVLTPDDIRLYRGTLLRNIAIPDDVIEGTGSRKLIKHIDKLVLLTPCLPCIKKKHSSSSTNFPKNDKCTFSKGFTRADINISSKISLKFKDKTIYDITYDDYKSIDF
Outline: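 Masliner-normalised scans of fluorescent anti-GST signal were the basis for scoring. That signal came from GST-tagged yeast transcription factors applied at about 100-200 nM to double-stranded universal all-10-mer Agilent arrays on fresh or once-stripped slides. Each ungapped eight-base word, pooled with its reverse complement, received an E-score from the Universal PBM Analysis Suite.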

Row | Sequence | PBM E-score
1 | GGAGTAAA | 0.333
2 | AACAGCTT | -0.107
3 | AAAGATGC | -0.0643
4 | ATACCGAT | 0.116
5 | TAAGAAGA | 0.221
6 | TACCTTGA | 0.0116
7 | AATTATAA | 0.335
8 | CGACTCCC | -0.211
9 | ACCATACT | 0.0355
10 | CCACGCAG | -0.25
11 | GCGAACCA | 0.128
12 | ATGAAAGG | -0.0134
13 | GTATAAAC | 0.227
14 | AAGTGCGC | 0.0556
15 | GAGGCGCA | -0.164
16 | CATAAGAA | 0.23
17 | GGAGCCTA | 0.126
18 | AGTATGGG | -0.226
19 | AAATAGGC | 0.0258
20 | ATGTCAAG | -0.0732
21 | CTAATAGC | -0.00937
22 | CCCAAATA | -0.156

Row | Sequence | PBM E-score
23 | TAAATGGA | 0.156
24 | GAAGACCC | -0.114
25 | ACCGTTGC | -0.107
26 | CGAGCTAC | 0.00894
27 | AGGTTGCG | -0.105
28 | TACGGTCA | -0.0479
29 | ATGCGATC | -0.191
30 | AAACATAC | 0.0421
31 | AGTCCTAC | -0.0179
32 | GATCATAA | 0.0305
33 | GGAGGTCA | -0.217
34 | AGGACCAT | -0.187
35 | CATTAATC | 0.142
36 | TCGCGGCA | -0.0924
37 | CACGACTG | -0.327
38 | CCTACGGC | -0.139
39 | ACCCCTCA | -0.375
40 | GGAAAGTA | 0.0794
41 | CCCGTCAG | -0.315
42 | AACTGTGA | -0.0806
43 | AGATACAT | 0.195
44 | TCACGGGA | -0.0194

Row | Sequence | PBM E-score
45 | TGCGCCCA | -0.209
46 | TGACAAAA | 0.156
47 | ACACGACT | -0.225
48 | ACCTTCGA | -0.0231
49 | GGACAACA | 0.0693
50 | CATCGCAA | -0.181
51 | CAGCTTAA | 0.106
52 | GAACCTGA | -0.11
53 | CTACGCGA | -0.0966
54 | ATAAAACC | 0.171
55 | AACTTCAA | 0.0893
56 | GTGAAATA | -0.0344
57 | ATAAGAGA | 0.161
58 | CATGACAG | -0.0273
59 | ATACATAG | 0.112
60 | AACCAATC | 0.108
61 | TGGACCCA | -0.0341
62 | AAGCGAGC | 0.0223
63 | GGACACCC | -0.221
64 | ACGAAAGT | -0.104
65 | AAATGAGT | 0.247
66 | GCAAGCGC | -0.0385

Row | Sequence | PBM E-score
67 | ACTATTAG | 0.196
68 | CATGTAAA | -0.0258
69 | AAAAGGTA | -0.0438
70 | AATACCAT | 0.135
71 | GGAAGACA | 0.00515
72 | TAGTCATA | 0.0894
73 | ATAAAGAA | 0.19
74 | CACCAAAA | 0.08
75 | AGGAGTGG | -0.124
76 | CACTAGGC | -0.0417
77 | ATCGGTAG | 0.0989
78 | ACCAGGGC | -0.315
79 | TAAGGGCA | -0.0268
80 | CAATCATA | 0.235
81 | TCTGGTCA | -0.0502
82 | ATTCAAGC | 0.0319
83 | ACTACGGA | 0.199
84 | AACACTGC | 0.0144
85 | TACCCGGA | 0.247
86 | CCGAGTCA | 0.117
